# Laboratory results from the supplement of paper PMC11417369.
# Some of the results follow.
# System: PfSIP2 AP2 domain 1 (GST-tagged)
# Assay: gcPBM binding intensity (ln(normalized median fluorescence intensity)); higher = stronger DNA binding
# Procedure, shortened: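 The binding buffer was 1× PBS containing 1% milk, 0.2 mg/ml BSA, 0.5% salmon testes DNA and 0.03% Triton X-100. In it, GST-tagged P. falciparum DNA-binding domains expressed in E. coli were applied for 1 h to an Agilent 4 × 180k array of primer-extended double-stranded 36-bp intergenic genomic probes plus negative controls. Binding intensity, read with Alexa488 anti-GST antibody and a 488 nm scan, is the highest Masliner-normalised natural-log median intensity across replicate spots of either probe orientation.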
row,Sequence,gcPBM binding intensity (ln)
1,ACTACGTGGATTAGTTCAAGGGAACACGTCCTATAC [CACACA_negctrl_site1427],6.78
2,CAACAAAAGTTATTTACACACAAAAGGCAAGGAAAT [CACACA_site7013],7.24
3,AAAGGAAATAAAAACGCACACAGAAATAATATCTAT [CACACA_site457],6.89
4,ATATTTCATTTTTGTACACACAACGTTGGAGGGTTT [CACACA_site3043],7.18
5,TAAAAAATTACATATTGTACAGGCAAAATTACACAT [XGTACX_site1152],6.93
6,TCATATAAATACACGTGTACATATATATATTACAGT [XGTACX_site1954],7.4
7,AAAAAATATATATGCACACACAAAAAAACAAATTAA [CACACA_site1278],7.91
8,AGTTTGCATATGGAAGTGCATTACCTTGAACATCAT,9.2
9,AATATAAAAAATAGTTGTACTATATTTAAATATGAC [XGTACX_site2937],7.1
10,AAAAAAAAAAAATAGACACACATATTATATATATAT [CACACA_site1419],8.89
11,TATTATTCTATACATTGTACATATTTTATAGTATGT [XGTACX_site73],7.07
12,TTTAAAACCTTACATACACACAAATATGTAAATATA [CACACA_site6464],6.98
13,TTCATATAACCTTATAGTACATAATTAAAAATATAA [XGTACX_site6328],7.16
14,AAAAAAAAAAAAAAAACACACATATAGGTATAAATA [CACACA_site7528],7.54
15,CACGCATATATACATACATGCATATATACATCCATG [TGCATGCA_site667],6.99
16,ATATCTATAATAAATACACACATTTATATAGATAAA [CACACA_site7518],7.02
17,AACAGCATTATTTCTTATTTTTTTTTTGATATATTT [GTGCAC_negctrl_site114],6.75
18,AAACTTGACAGACACACACACACATATATAAAAAAA [CACACA_site757],7.33
19,GTTATATTATTCATACGTACCTATATTTCTATTAAC [XGTACX_site3447],7.46
20,TTTTCCTTATATTATGCATGCAGGGTTTGACATTAT [TGCATGCA_site826],7.33
21,ATGTGTTGGGAAAAGGCATGCACTTTTTTTTTTTTT [TGCATGCA_site707],9.57
22,TGATAACCTCACAAATGTACGTACGGGGCTAGCATT [XGTACX_site4157],6.84

row,Sequence,gcPBM binding intensity (ln)
1,ACACATACTAAAATGTTGTGAAATATGATAATGTGA [CACACA_negctrl_site851],6.94
2,TTATAATAATAGAACTTTATGTAGAAAAAAGGAAAA [XGTACX_negctrl_site116],6.7
3,CACAGACACGGACACACACACACACCCACATATATA [CACACA_site4355],7.4
4,ATATATTTTAAATATATTATTATTGCATTGTGAAAA [TGCATGCA_negctrl_site106],7.07
5,TCTTAAAAAATAGGGACACGTAAATATAATATATAA [CACACA_negctrl_site554],6.96
6,AAAAAAAAAAAAAAAACACACATATATATATATATA [CACACA_site2436],10.1
7,TATATATATATATATAGTACATATTAATTAATTTAT [XGTACX_site8198],9.76
8,TATAATGAGGATAATAGTACATATGAATACAAAAAA [XGTACX_site3665],6.96
9,TACACAAGCAGACACACACACATATAGATTTATATA [CACACA_site6715],7.32
10,GCCATAAAAATATATACACACATAAAAAAAAATTAT [CACACA_site1176],7.09
11,TTAATATTGTATTTCACACATAATTTAATATACTCA [CACACA_site5678],6.87
12,TTAAATAAGTAATTATGTACATATAATATTCTTTAT [XGTACX_site5280],6.97
13,TATAGGAATATATGGTGTACCTATAAATCTGACATA [XGTACX_site8111],6.84
14,AAAAATAAAAATTGCACACTAAAAAATTACGCACGA [CACACA_site3418],7.6
15,ATTTATATATTTATACGTACTTATATATTGTTACAT [XGTACX_site6254],7.16
16,TAGAAAATATAAAAATGTACGTAAATAAAATGTGCA [XGTACX_site3459],7.52
17,TCTTAAGGAAAAGAGTGTACAGAAATTTTTATTAAC [XGTACX_site6139],7.1
18,ATCCGAGTGTGAAATACACACATGATAATGTGAATG [CACACA_site919],6.86
19,AATTATATTACAAACTGTACATATATAATTTGTCCA [XGTACX_site6009],6.82
20,ACATGAAATGTTTAAAGTACATATATAAATTTTTTT [XGTACX_site4519],6.79
21,ATATATAGATAATCAAGTACATAACAAGATATAAGA [XGTACX_site2186],7.02
22,TACTGATCTTTCTAGGTGCGCTGCTACCATTATCGT [GTGCAC_site9538],9.59

row,Sequence,gcPBM binding intensity (ln)
1,AAATGTGAAGTGAATACACACCTAATAAATATAACA [CACACA_site5727],6.9
2,TATATTTAATTATTATGTACTTATAATTTTTGAAAG [XGTACX_site8548],7.2
3,CTTTCCTATTTGACACGTACGAAATTTTACATAAAA [XGTACX_site6689],7.36
4,AAATATATATACACATATATATATATATATATATAT [CACACA_negctrl_site1742],9.46
5,TATGAAATATCGTGCACACACGAATAATATAAGAAT [CACACA_site4842],8.91
6,AAAATAAAAAATATAACACACAATAAATATTTATAT [CACACA_site6986],7.05
7,TATATATATAATATTACACACATATATTTATATTTT [CACACA_site3460],7.99
8,ATTTATACATGCTAATGTACTTATTTCACCTATATC [XGTACX_site3120],7.02
9,TATGGTATATACAACACACACACATATGTATAAATA [CACACA_site6562],7.22
10,CAAGTATTAATTATGTGTACATATATATATATATAT [XGTACX_site5311],9.57
11,TATGTATTTATCCACTTACATTTTTACTTTTCCATT [CACACA_negctrl_site1141],6.8
12,TGTTTGCTTATGTGTTAAATATATATATATATATAT [TGCATGCA_negctrl_site218],9.44
13,ATTTTAGGAAAAAAAAGTACATATAATTTTTTATAT [XGTACX_site6954],6.93
14,CGAACACAAACACAAACACACATCAGATATAAATAT [CACACA_site6736],6.99
15,TTTTTTTTGATATATACACACAATAAATAAATATAA [CACACA_site7400],7.18
16,ATTTATTATTATATCACACATAATATATTAAATGAT [CACACA_site5821],6.95
17,TATGGAGAAATAAATAGTACGTATTTTATTTAAAAA [XGTACX_site3129],6.88
18,AAAAATATAAAAATAGCACACATATATACATATATA [CACACA_site7901],6.95
19,ATGTTCGATGATAAATGTACAAAAATAATGGAAGTA [XGTACX_site1916],7.38
20,TATAAAAATATTGAAAGTACTTATTAAAATATTATT [XGTACX_site3701],6.96
21,TTTCCTAGCACATGCACACAAAAAAAAAAAAAAAAA [CACACA_site1404],7.49
22,CTTGCAAAAAGTATATGTACATATATATATATATAT [XGTACX_site5792],9.15

row,Sequence,gcPBM binding intensity (ln)
1,TATTCCTAATTGACAACACACACAACAAAAAAGGGA [CACACA_site8350],7.44
2,CTATAATATGGTATTACACACTGTTATAAGTATGGC [CACACA_site7068],6.88
3,ATATATTTTTTGAATACACACATATTATCTGTAATA [CACACA_site4826],7.06
4,TATAAATAGAGACACACACACATATAAATAAATATT [CACACA_site7854],7.04
5,TATATTTCTTCTATAACATGCAGATATATGAAAATA [TGCATGCA_site971],7.11
6,TAATGAAATATTATGTGTACTTAAAAATTATTAAAT [XGTACX_site5261],7.13
7,ATTATTAACATATATATACACACGAAAAAATTATAT [CACACA_site625],7.4
8,AGAATTATTTTATGTTTGCACTTTTTTTTTCTATAA [GTGCAC_site9876],8.35
9,TTTTTGTTCTATATGGTGCATGTTTATATTCGTATT,10.3
10,ATTAGCAACATTGATAAATATAAACACACGAAAACA [TGCATGCA_negctrl_site97],7.21
11,ATACCATAAATATTGTGTACATAAATATGTTAGTAA [XGTACX_site6077],7.03
12,TTTTAGAAATTTACTAAACTTTATATAACTATTGAA [TGCATGCA_negctrl_site280],6.76
13,CATGTTTATGCCGTTTGTACATATATATCTAAAAAA [XGTACX_site4336],7.56
14,CACGTATATATATATACACACACATATATATATGTA [CACACA_site7948],7.1
15,GTTCATATCTTTTGAGCACACATATATATATATAAA [CACACA_site9099],7.26
16,ATAAGTAAAAATAAAAAAAAAATATATATATATATA [CACACA_negctrl_site1816],9.24
17,ATGATTATAATTTAAAATATTTTACATAACCATTTC [GTGCAC_negctrl_site297],7.06
18,TTTAGCTATTATAGCTGTACAATGATAAAATAAATT [XGTACX_site6318],6.96
19,AATGAATCCTTATATACACACATTATTATATTATAT [CACACA_site3108],7.05
20,ATTGATACATCCAATACACACTACATATAATGATGT [CACACA_site8561],6.97
21,TTTTTTATATATACATATATATAAATATATATAACT [GTGCAC_negctrl_site385],6.72
22,ATATTAATAATATATGCATGCATTAACATATTGAAA [TGCATGCA_site951],7.22
